# According to PubChem BioAssay AID588453 (National Center for Advancing Translational Sciences (NCATS), 2011):
# Among all 390,000 compounds or so, about 4,000 (1%) were called active. Inconclusive means that the source gave no clear call. Such entries were picked first, then a sample of the others. Calls follow the shape of the dose curve; as a rule, active = well fitted inhibition curve with a large enough effect; inconclusive = small, poorly fitted or top-dose-only effect; inactive = no such curve, though single readings can be large or run the other way. Potencies of inconclusive entries are doubtful fits and often do not repeat.
# Biological target: Thioredoxin reductase 1, cytoplasmic (Rattus norvegicus) (UniProt O89049)
# UniProt O89049, sequence (O89049 whole entry, looked up): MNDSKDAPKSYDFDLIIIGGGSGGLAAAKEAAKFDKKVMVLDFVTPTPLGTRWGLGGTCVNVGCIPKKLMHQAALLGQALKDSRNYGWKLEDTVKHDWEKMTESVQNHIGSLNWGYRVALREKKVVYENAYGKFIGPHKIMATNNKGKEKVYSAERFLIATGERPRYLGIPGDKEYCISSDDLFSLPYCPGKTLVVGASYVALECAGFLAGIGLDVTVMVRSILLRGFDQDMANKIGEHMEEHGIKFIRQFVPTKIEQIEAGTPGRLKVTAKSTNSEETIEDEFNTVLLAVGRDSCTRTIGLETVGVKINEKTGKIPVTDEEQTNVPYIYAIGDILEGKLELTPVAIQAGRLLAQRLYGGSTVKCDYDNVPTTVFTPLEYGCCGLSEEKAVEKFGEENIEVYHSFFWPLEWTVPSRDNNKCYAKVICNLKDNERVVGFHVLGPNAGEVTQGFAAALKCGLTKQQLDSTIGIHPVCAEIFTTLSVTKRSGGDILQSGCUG
# Assay: qHTS Assay for Inhibitors of Mammalian Selenoprotein Thioredoxin Reductase 1 (TrxR1): qHTS; also: nearly all actives have a fitted effect of over 65% in size
# Conditions: recombinant rTrxR1, NADPH fluorescence consumption, selenite substrate; series mostly up to 114 µM; activity change, negative = inhibition: at the top concentration
# Procedure, shortened: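 Rat TrxR1 (90 nM in the dispensed reagent) was pre-reduced with 400 uM NADPH for 5 min at room temperature, then incubated with compound for 15 min. After 400 uM selenite was added, NADPH fluorescence (Ex 340/Em 450 nm) was followed for 8 min.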
# % is scaled to controls: 0 for no effect and ±100 for the full control effect; potency is read from the fitted curve at half-maximal effect; tags tell the direction and shape of the fitted curve.
SMILES,Potency,"activity change, negative = inhibition"
CCCCn1c(CCC)nc([N+](=O)[O-])c1Sc1ccc(Cl)cn1,"inconclusive: 25.1 µM [inhibitor, full curve, poor fit]",–
C=C1C(=O)O[C@H]2C[C@]3(C)C([C@@H](OC(=O)/C(C)=C/C)[C@H]12)[C@](C)(O)CC[C@H]3O (stereo partly drawn),"inconclusive: 56.2 µM [inhibitor, partial curve, poor fit]",–
CCCCn1c(-c2ccsc2)nc2c1c(=O)[nH]c(=O)n2CCC,–,inactive: -11.2%
CC(C)Oc1cccc(C(=O)NC(=S)Nc2ccc(Cl)c(C(=O)O)c2)c1,"inconclusive: 28.2 µM [inhibitor, partial curve, poor fit]",–
COc1cc(C(=O)Nc2nc(-c3cc(C)ccc3C)c(C)s2)ccc1OCC(=O)Nc1ccc(F)cc1,–,inactive: -16.8%
N#Cc1c(NC(=O)/C=C/C(=O)O)sc2c1CCN(Cc1ccccc1)C2,"inconclusive: 50.1 µM [inhibitor, partial curve]",–
Cc1ccc(OCC(=O)N2CCN(S(=O)(=O)c3ccc4c(c3)OCCO4)CC2)c(C)c1,–,inactive: 16.4%
Cn1nnnc1Sc1ncnc2scc(-c3ccc(C#N)cc3)c12,"inconclusive: 89.1 µM [inhibitor, single point]",–
CC(c1ccccc1)N1CCn2c(nc3cc(NC(=O)c4cccs4)ccc32)C1 (stereo not drawn),–,inactive: -10.3%
CCc1nnc(NS(=O)(=O)c2ccc(NC(=S)NC(=O)c3ccc(Br)cc3)cc2)s1,active: 50.1 µM,–
CCC1(OC(=O)CN(C)C)C(=O)OCc2c1cc1n(c2=O)Cc2cc3c(N)cccc3nc2-1 (stereo not drawn),–,inactive: 1.59% [at 11.4 µM]
CN1C(=O)c2ccc(NC(=S)NC(=O)C(C)(C)C)cc2C1=O,"inconclusive: 44.7 µM [inhibitor, partial curve]",–
CCC(=O)Nc1nonc1-c1nc2ccccc2n1N(C(=O)CC)C(=O)CC,"inconclusive: 39.8 µM [inhibitor, single point]",–
CC(C)n1c(=S)[nH]c2c1c(=O)[nH]c(=O)n2C,"inconclusive: 39.8 µM [inhibitor, partial curve, poor fit]",–
CC1(C)OC(=O)C(=Cc2ccc(-c3ccc(S(N)(=O)=O)cc3)o2)C(=O)O1,–,inactive: -18.9%
COC(=O)c1ccc(NC(=O)c2nc(S(=O)(=O)Cc3cccc(C)c3)ncc2Cl)cc1,active: 20 µM,–
CCOc1ccc(CCNS(=O)(=O)c2c(C)nc3sc(C)cn3c2=O)cc1OCC,–,inactive: 0.961%
Cc1c(NC(=S)N/N=C/c2cc([N+](=O)[O-])ccc2O)c(=O)n(-c2ccccc2)n1C,"inconclusive: 79.4 µM [inhibitor, single point]",–
CCOc1ccc(/C(O)=C2/C(=O)C(=O)N(CCCN3CCOCC3)C2c2ccc(F)cc2)cc1C (stereo not drawn),"inconclusive: 79.4 µM [inhibitor, partial curve]",–
COc1nccnc1NS(=O)(=O)c1ccc(NC(=S)NC(=O)c2ccccc2)cc1,"inconclusive: 17.8 µM [inhibitor, full curve, poor fit]",–
COc1ccc(-c2nc(CS(=O)CC(=O)NC3CCCC3)c(C)o2)cc1 (stereo not drawn),"inconclusive: 56.2 µM [inhibitor, single point]",–
N#Cc1nc(N)nc(N2CCCCC2)n1,–,inactive: 5.15%
Cc1cccc(NC(=O)c2ccc(-c3ccccc3[N+](=O)[O-])o2)c1,"inconclusive: 35.5 µM [inhibitor, partial curve, poor fit]",–

SMILES,Potency,"activity change, negative = inhibition"
CNC(=O)/C=C1\NC(C)(C)Cc2c1ccc1ccccc21,"inconclusive: 17.8 µM [inhibitor, partial curve]",–
CCNC(=S)NNC(=O)c1cccc(Br)c1,"inconclusive: 50.1 µM [inhibitor, partial curve, poor fit]",–
Cc1[nH][nH]c(=O)c1C(c1ccc(-c2ccc(Cl)cc2)o1)c1c(C)[nH][nH]c1=O,"inconclusive: 31.6 µM [inhibitor, partial curve, poor fit]",–
CC1(C)Cc2c(C#N)c(NCc3ccco3)nc(-c3ccco3)c2CO1,"inconclusive: 22.4 µM [inhibitor, full curve]",–
Cc1ccc(S(=O)(=O)c2nc(-c3ccccc3)oc2N2CCC(C(N)=O)CC2)cc1,"inconclusive: 50.1 µM [inhibitor, partial curve]",–
O=C(CCN1CCc2ccccc2CC1)c1ccc2c(c1)OCCO2,active: 0.316 µM,–
Cn1c(=O)cc(N2CCN(C(=O)c3ccco3)CC2)[nH]c1=O,"inconclusive: 31.6 µM [inhibitor, partial curve, poor fit]",–
Cc1ccc(-c2c(C#N)c(N)nc3c2CCCC3)o1,active: 31.6 µM,–
Cn1cnc([N+](=O)[O-])c1S(=O)(=O)c1cccc(Cl)c1,"inconclusive: 0.1 µM [inhibitor, full curve, poor fit]",–
COc1cc(C2c3c(oc4ccccc4c3=O)C(=O)N2c2nccs2)ccc1O (stereo not drawn),"inconclusive: 44.7 µM [inhibitor, partial curve]",–
O=C(CCNc1ccc(Cl)c(C(F)(F)F)c1)c1ccco1,"inconclusive: 39.8 µM [inhibitor, single point]",–
CC(=O)Nc1ccc(S(=O)(=O)/N=C2\C(=O)c3ccccc3C([O-])=C2n2cc[n+](-c3ccccn3)c2)cc1,"inconclusive: 35.5 µM [inhibitor, full curve, poor fit]",–
O=C(N/N=C/c1sc(=O)[nH]c1-[n+]1ccc2ccccc2c1)c1ccccc1[O-],"inconclusive: 56.2 µM [inhibitor, partial curve, poor fit]",–
Cc1noc(C)c1S(=O)(=O)N1CCC(C(=O)N2CCN(c3ccccc3Cl)CC2)CC1,"inconclusive: 31.6 µM [inhibitor, partial curve, poor fit]",–
O=C(CCn1c(=O)c2ccccc2n(Cc2cccc([N+](=O)[O-])c2)c1=O)N1CCc2ccccc2C1,–,inactive: -9.61%
O=C(CCl)N1c2ccccc2Sc2c1ccc1ccccc21,"inconclusive: 3.16 µM [inhibitor, partial curve, poor fit]",–
Cc1cccc(COC(=O)C(Cc2ccccc2)NC(N)=O)c1 (stereo not drawn),"inconclusive: 89.1 µM [inhibitor, single point]",–
O=C(CCl)N1c2ccccc2Oc2ccc3ccccc3c21,active: 2.51 µM,–
CN(C)c1ccc(/C=N/NC(=O)c2ccccc2O)o1,"inconclusive: 31.6 µM [inhibitor, single point]",–
Cc1cccc(C)c1NS(=O)(=O)c1ccc(OCCNS(C)(=O)=O)cc1,–,inactive: 1.93% [at 57.1 µM]
O=C(c1nc(-c2ccc(Cl)cc2)n2c1CCCCC2)N1CCN(c2ccc(F)cc2)CC1,–,inactive: 7.32%
CCOC(=O)Cc1csc(NC(=O)/C=C/c2ccco2)n1,active: 79.4 µM,–
O=C(/C=C/c1ccco1)N1CCC(Cc2ccccc2)CC1,"inconclusive: 28.2 µM [inhibitor, single point]",–

SMILES,Potency,"activity change, negative = inhibition"
O=c1c2cccnc2n(-c2ccccc2)n1Cc1ccc(Cl)cc1,–,inactive: 104% [at 57.1 µM]
Cc1ccc2cc(CN(Cc3ccco3)Cc3nnnn3Cc3ccco3)c(=O)[nH]c2c1,"inconclusive: 56.2 µM [inhibitor, partial curve, poor fit]",–
CCC(=O)Oc1c(C(=O)CC)cc2c(C)cc(=O)oc2c1C,"inconclusive: 22.4 µM [inhibitor, full curve]",–
CC(=O)N1CCN(CCN=CC2=C(O)CC(c3ccc(Cl)cc3)CC2=O)CC1 (stereo not drawn),"inconclusive: 25.1 µM [inhibitor, single point]",–
Cc1ccc(NC(=S)NNC(=O)c2c([N+](=O)[O-])c(C)nn2C)cc1,–,inactive: -9.91%
S=c1[nH]nc(Cc2noc3ccccc23)n1-c1ccccc1,"inconclusive: 10 µM [inhibitor, partial curve, poor fit]",–
CCOC(=O)N1CCC(Nc2c(Nc3ccc(C)c(C)c3)c(=O)c2=O)CC1,"inconclusive: 39.8 µM [inhibitor, partial curve, poor fit]",–
COC(=O)c1ccccc1NC(=O)CN1CCCCC1,"inconclusive: 89.1 µM [inhibitor, single point]",–
COc1ccc2c(Sc3ccccc3)c(C(=O)NCCN(C)C)[nH]c2c1,"inconclusive: 79.4 µM [inhibitor, partial curve]",–
Cc1ccc(-c2nc3ccc(NS(=O)(=O)c4ccccc4)cc3[nH]2)o1,"inconclusive: 17.8 µM [inhibitor, full curve]",–
CCOC(=O)c1oc2c(O)c(O)ccc2c(=O)c1-c1nncn1-c1ccccc1,–,inactive: 0.103% [at 57.1 µM]
O=C(N/N=C/c1cccc([N+](=O)[O-])c1)c1cccs1,–,inactive: -9.77%
COc1cccc(-c2nnc(NC(=O)c3ccc(S(=O)(=O)N4CCOCC4)cc3)o2)c1,–,inactive: 0.0365%
Cc1ccc(-n2sc3ccccc3c2=O)cc1S(=O)(=O)N1CCCCC1,–,inactive: -26.8%
CCOc1cc(C(=O)OCc2cc(=O)n3c(C)csc3n2)cc(OCC)c1OCC,–,inactive: 6.67% [at 57.1 µM]
Oc1ccccc1/C=N/n1c(-c2cccs2)n[nH]c1=S,"inconclusive: 1.58 µM [inhibitor, partial curve, poor fit]",–
CC(C)(C)C(=O)/C(=C/c1ccc(Cl)cc1)n1cncn1,"inconclusive: 20 µM [inhibitor, full curve]",–
CCOC(=O)Cn1c(=O)oc2cc(S(=O)(=O)NCc3ccc(F)cc3)ccc21,–,inactive: 18.4%
N#CC(C#N)=Cc1ccc(OCC(=O)N2CCOCC2)cc1,active: 15.8 µM,–
Cc1ccc(Cl)cc1N1CCN(C(c2ccc(F)cc2)c2nnc(-c3ccccc3)o2)CC1 (stereo not drawn),–,inactive: 9.74%
Cc1ccc(OCC(=O)N/N=C/c2ccco2)cc1,–,inactive: 7.53%
Cc1ccc(S(=O)(=O)N2CCCNCC2)cc1,"inconclusive: 56.2 µM [inhibitor, partial curve, poor fit]",–
